The results in this text go back to PubChem BioAssay AID360 (National Center for Advancing Translational Sciences (NCATS), 2006).

Each structure is given as a SMILES string. Out of some 48,000 compounds screened, about 550 (1.1%) were called active. Another 4% or so got no clear call; they are omitted. No stated cut-off is given here; in the data, active means potency below about 15 µM; inconclusive means mostly about 16 µM to 33 µM; inactive means weaker than that. This is one part of the list.
Potency means the concentration at half of the fitted maximal effect.

The target of this assay is Lysosomal acid glucosylceramidase (Homo sapiens) (UniProt P04062). The experiment in a line: Glucocerebrosidase.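 Further: the screen sought inhibitors.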 The conditions noted are these: purified enzyme, resorufin glucoside fluorescence (screen aimed at inhibitors), 20 min. The procedure, abridged: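 Normal human glucocerebrosidase (0.2 nM final) was assayed with resorufin β-D-glucopyranoside (30 uM final) in 50mM citric acid/KH2PO4, 10mM sodium taurocholate, 0.01% tween-20, pH 5.9. Compounds were titrated; fluorescence (Ex 548, Em 600) read after 20 min at RT.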
Sequence of UniProt P04062 (P04062 whole entry, looked up): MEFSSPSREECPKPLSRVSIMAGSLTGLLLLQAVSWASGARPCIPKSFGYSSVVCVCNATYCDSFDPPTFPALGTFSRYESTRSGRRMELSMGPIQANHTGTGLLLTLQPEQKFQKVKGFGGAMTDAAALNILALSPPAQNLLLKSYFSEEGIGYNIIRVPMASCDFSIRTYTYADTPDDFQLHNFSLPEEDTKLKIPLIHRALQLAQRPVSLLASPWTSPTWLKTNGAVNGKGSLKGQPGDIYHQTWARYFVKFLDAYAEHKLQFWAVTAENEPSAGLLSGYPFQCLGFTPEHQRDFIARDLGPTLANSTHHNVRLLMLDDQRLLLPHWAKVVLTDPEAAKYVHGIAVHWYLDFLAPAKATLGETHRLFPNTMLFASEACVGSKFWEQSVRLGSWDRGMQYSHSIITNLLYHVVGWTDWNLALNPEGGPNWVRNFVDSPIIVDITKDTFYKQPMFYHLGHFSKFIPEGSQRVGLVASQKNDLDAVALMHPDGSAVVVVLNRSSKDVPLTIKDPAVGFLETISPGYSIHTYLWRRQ
As for `CN1CCN(c2ccc(NC(=O)C(C)(C)C)cc2)CC1`, the Potency is inactive: > 76.9 µM.

Turning to `C=Cn1ccnc1P(=S)(c1c(C)nn(-c2ccccc2)c1C)c1nccn1C=C`, the Potency was inactive: > 76.9 µM.

`CC1(C)C2CC=C(CN3CCC(O)CC3)C1C2` (stereo not drawn): the Potency was inactive: > 76.9 µM.

As for `C=CCn1c(O)c(C(CC)=Nc2ccccc2NC(C)=O)c(=O)[nH]c1=O`, the Potency was inactive: > 76.9 µM.

Turning to `CCC(C)N1C(=O)NC(=O)C2(Cc3c(ccc4ccccc34)N(C)C2)C1=O` (stereo not drawn), the Potency was inactive: > 76.9 µM.

`Cc1cc(S(=O)(=O)NC(C)C)ccc1OCC(=O)N1CCN(Cc2ccc3c(c2)OCO3)CC1`: the Potency is inactive: > 76.9 µM.

With `CC(=NC1CCN(Cc2ccccc2)CC1)c1c(O)n(C)c(=O)n(C)c1=O`, the Potency was inactive: > 76.9 µM.

Regarding `Cc1cccc(CS(=O)(=O)Cc2ccc(C(=O)N3CCC4(CC3)OCCO4)o2)c1`, the Potency was inactive: > 76.9 µM.

Turning to `Cc1ccc(-n2c(O)c(C=Nc3ccccc3N)c(=O)[nH]c2=O)cc1C`, the Potency was inactive: > 76.9 µM.

Take `O=C(Cn1cnc2sc3c(c2c1=O)CCCC3)NCCC(=O)N1CCC2(CC1)OCCO2`: the Potency is inactive: > 76.9 µM.

For the compound `CCCCC(=O)C1C(=O)NC(=O)NC1=O`, the Potency is inactive: > 76.9 µM.

`CC(=NCc1ccco1)c1c(O)n(Cc2ccccc2)c(=O)[nH]c1=O`: the Potency was inactive: > 76.9 µM.

Regarding `COc1ccc(CCNCc2ccccn2)cc1OC`, the Potency is inactive: > 76.9 µM.

Consider `CCOP(=O)(C#CC(C)(C)C)C1(O)CCCCC1` (stereo not drawn), for which the Potency was inactive: > 76.9 µM.

Take `N=c1sc2c(n1Cc1ccccc1)CCCC2`: the Potency is inactive: > 76.9 µM.

As to `CN1CCN(CC(=O)Nc2ccc(Cl)cc2C(=O)c2ccccc2)CC1`, the Potency was inactive: > 76.9 µM.

In the case of `CCn1nc(-c2cccs2)nc2c(=O)n(C)c(=O)nc1-2`, the Potency is inactive: > 76.9 µM.

Regarding `COC(=O)CCCNC(=O)CN1CC(c2ccccc2)CC1=O` (stereo not drawn), the Potency is inactive: > 76.9 µM.

With `CN(C)C(=O)Oc1ccc(OC(=O)c2ccccc2)cc1`, the Potency is inactive: > 76.9 µM.

`CC(=O)Nc1ccc(OC(=O)N(C)C)cc1`: the Potency is inactive: > 76.9 µM.

For the compound `COCc1c(CN)cnc(C)c1N`, the Potency is inactive: > 76.9 µM.

For the compound `O=P(C(c1ccc2c(c1)OCO2)N1CCOCC1)(N1CCOCC1)N1CCOCC1` (stereo not drawn), the Potency was inactive: > 76.9 µM.

On to `O=C(Cn1nc(Cc2cccnc2)c2ccccc2c1=O)N1CCC2(CC1)OCCO2`, for which the Potency is inactive: > 76.9 µM.

On to `NC(=O)Nc1cccc(C(F)(F)F)c1`, for which the Potency is inactive: > 76.9 µM.

For `O=C1CC(N2CCC(n3c(=O)[nH]c4ccccc43)CC2)C(=O)N1Cc1ccccc1` (stereo not drawn), the Potency is inactive: > 76.9 µM.

As for `Cc1cccc(-n2c(C)nc3cc(C(=O)N4CCC5(CC4)OCCO5)ccc32)c1`, the Potency is inactive: > 76.9 µM.

For `Oc1ccc(C2NCc3ccccc3-n3cccc32)cc1Cl` (stereo not drawn), the Potency was inactive: > 76.9 µM.

As for `CC(=O)N1CC(=O)Nc2ccc(Cl)cc2C1c1ccc(F)cc1` (stereo not drawn), the Potency was inactive: > 76.9 µM.

Consider `CC(=NCCN1CCOCC1)c1c(O)n(-c2ccccc2C)c(=O)[nH]c1=O`, for which the Potency is inactive: > 76.9 µM.

With `O=c1cccc2n1CC1CC2CN(Cc2cccc(Cl)c2Cl)C1` (stereo not drawn), the Potency is inactive: > 76.9 µM.

With `CCN(CC)C(=O)c1ccc(NC(=O)c2cc(-n3cnnc3)ccc2Cl)cc1`, the Potency is inactive: > 76.9 µM.

As for `COc1ncccc1C(=O)NCC(CC(=O)O)c1ccccc1` (stereo not drawn), the Potency was inactive: > 76.9 µM.

For `COc1ccc(Nc2ncc(C(=O)N3CCC4(CC3)OCCO4)c3ccccc23)cc1`, the Potency is inactive: > 76.9 µM.

On to `CC(=O)Nc1ccc(OC(=O)N2CCCCC2)cc1`, for which the Potency was inactive: > 76.9 µM.

Consider `CSC1=NP(=S)(SC)N2CCCC2=C1C#N` (stereo not drawn), for which the Potency is inactive: > 76.9 µM.

In the case of `C(#CCN1CCOCC1)COCc1ccccc1`, the Potency is inactive: > 76.9 µM.

As to `CN1CCN(Cc2nc3ccccc3n2C)CC1`, the Potency is inactive: > 76.9 µM.

For `CN1CCN(c2ccc(C(N)=O)cc2N)CC1`, the Potency was inactive: > 76.9 µM.

In the case of `COC(=O)CSC1=NP(=S)(SCC(=O)OC)N2CCCC2=C1C#N` (stereo not drawn), the Potency was inactive: > 76.9 µM.

Consider `COc1ccccc1CN1CCCCC1c1cccnc1` (stereo not drawn), for which the Potency is inactive: > 76.9 µM.

Consider `c1ccc2c(CCNCc3ccc4c(c3)OCO4)c[nH]c2c1`, for which the Potency is inactive: > 76.9 µM.

As for `NC12CN3CN(CN(C3)C1)C2` (tested in a mixture with another compound), the Potency is inactive: > 76.9 µM.

Regarding `O=C(c1cc2c(s1)CCCC2)N1CCC2(CC1)OCCO2`, the Potency was inactive: > 76.9 µM.

As for `COC(=O)c1c(C)[nH]c(C(=O)C(Cc2ccccc2)N(C)C)c1C` (stereo not drawn), the Potency is inactive: > 15.4 µM.

Turning to `Cc1ccc(-n2nc(C)c3c2NC(=O)CSC3c2ccc3c(c2)OCO3)cc1` (stereo not drawn), the Potency was inactive: > 76.9 µM.

Regarding `CN(C)CP(=O)(O)CN(C)C=O`, the Potency was inactive: > 76.9 µM.

Turning to `CON(C)C(=O)Nc1ccc(Cl)cc1`, the Potency was inactive: > 76.9 µM.

For `Cc1ccc(S(=O)(=O)Cc2ccc(C(=O)N3CCC4(CC3)OCCO4)o2)cc1`, the Potency is inactive: > 76.9 µM.

Consider `CCCCOC(=O)C1=C(N)OC2=C(C(=O)CCC2)[C@]12C(=O)N(C)c1ccccc12`, for which the Potency was inactive: > 76.9 µM.

For `CN1CCN(C(=O)COc2ccc(C(C)(C)C)cc2Br)CC1`, the Potency was inactive: > 76.9 µM.

Take `Cc1cc(Cl)ccc1OC(C)C(=O)O` (stereo not drawn): the Potency is inactive: > 76.9 µM.

`O=C(CSc1ccccc1)N1CCC2(CC1)OCCO2`: the Potency is inactive: > 76.9 µM.

For `CCSc1cc(C2C(C#N)=C(N)Oc3n[nH]c(C)c32)c(C)o1` (stereo not drawn), the Potency was inactive: > 76.9 µM.

Consider `O=C1NC(=O)C(CCc2ccncc2)(C2CCCCC2)C(=O)N1`, for which the Potency was inactive: > 76.9 µM.

For the compound `COC(=O)CC1=C(C(=O)OC)C2(C(=O)Nc3c(C)cccc32)C(C#N)=C(N)O1` (stereo not drawn), the Potency is inactive: > 76.9 µM.

`COC(=O)C1=C(N)Oc2c(c(=O)oc3ccccc23)[C@]12C(=O)N(C)c1ccccc12`: the Potency is inactive: > 76.9 µM.

In the case of `CCn1c(C(=O)N2CCC(C(=O)N3CCC4(CC3)OCCO4)CC2)cc2sccc21`, the Potency was inactive: > 76.9 µM.

Take `CC(=O)N(C1=NCCCS1)c1ccccc1F`: the Potency is inactive: > 76.9 µM.

`C=CCn1c(O)c(C(C)=NCCN2CCOCC2)c(=O)[nH]c1=O`: the Potency is inactive: > 76.9 µM.

For the compound `OC1(c2cccnc2)CC2CCC(C1)N2Cc1nnnn1Cc1ccccc1` (stereo not drawn), the Potency is inactive: > 76.9 µM.

`CN(C(=O)c1ccco1)C1(c2ccccc2Cl)CCCCC1=O` (stereo not drawn): the Potency was inactive: > 76.9 µM.

`Cc1ccccc1NC1=NCC(C)S1` (stereo not drawn): the Potency was inactive: > 76.9 µM.

As to `C[C@]12CCC(=O)C=C1CCC1C2CC[C@@]2(C)C1CC[C@@]2(O)CC#N` (stereo partly drawn), the Potency is inactive: > 76.9 µM.

With `CCN1CCN(C(=O)COc2cc(=O)n(CC)c3ccccc23)CC1`, the Potency is inactive: > 76.9 µM.

Take `CCCS(=O)(=O)N1CCCC(C(=O)N2CCC3(CC2)OCCO3)C1` (stereo not drawn): the Potency is inactive: > 76.9 µM.

With `Cc1ccc(O)c(CN2CCN(c3ccccc3)CC2)c1`, the Potency was inactive: > 76.9 µM.

Regarding `CCCNC(=O)N1C2CCC1CC(O)(c1cccnc1)C2` (stereo not drawn), the Potency was inactive: > 76.9 µM.

With `Cc1nc2ccc(Cl)cn2c1P(=S)(N1CCOCC1)N1CCOCC1`, the Potency is inactive: > 76.9 µM.

For the compound `Cn1ccnc1P(=S)(c1nccn1C)c1nccn1C`, the Potency is inactive: > 76.9 µM.

Regarding `COc1cccc(N2C(=O)NC(=O)C3(Cc4cc(C)ccc4N(C)C3)C2=O)c1` (stereo not drawn), the Potency was inactive: > 76.9 µM.

With `CCN1CCN(Cc2cc(Br)cc(OC)c2O)CC1`, the Potency was inactive: > 76.9 µM.

In the case of `O=c1[nH]c(=O)n(Cc2ccccc2)c(O)c1C=Nc1ccc(CN2CCOCC2)cc1`, the Potency is inactive: > 76.9 µM.

For `Fc1ccccc1N1CCN(Cc2c(F)cccc2F)CC1`, the Potency was inactive: > 76.9 µM.

On to `CCCNC(=O)c1c(N)n(CC2CCCO2)c2nc3ccccc3nc12` (stereo not drawn), for which the Potency result was “inactive”.

Regarding `CC1=CC(C)C(COC(N)=O)(COC(N)=O)C(C)C1` (stereo not drawn), the Potency was inactive: > 76.9 µM.

`CC(=NCCCn1ccnc1)c1c(O)n(C)c(=O)n(C)c1=O`: the Potency was inactive: > 76.9 µM.

Consider `Cc1cccc(-n2c(O)c(C=NCCCN3CCOCC3)c(=O)[nH]c2=O)c1C`, for which the Potency is inactive: > 76.9 µM.

With `C=CCn1c(O)c(C(C)=NCc2cccnc2)c(=O)[nH]c1=O`, the Potency was inactive: > 76.9 µM.

With `O=C1NCN(c2ccccc2)C12CCNCC2`, the Potency was inactive: > 76.9 µM.

Take `COc1ccc(-n2c(O)c(C(C)=NCCN3CCNCC3)c(=O)[nH]c2=O)cc1`: the Potency is inactive: > 76.9 µM.

Regarding `COc1cc(/C=N/n2cnnc2)ccc1OC(=O)N(C)C`, the Potency was inactive: > 76.9 µM.

As to `CCc1cccc2c(C#N)cn(CC(=O)N3CCOCC3)c12`, the Potency is inactive: > 76.9 µM.

In the case of `CCN(CC)C(=O)c1ccc(NC(=O)CSc2nnnn2-c2cc(OC)ccc2OC)cc1`, the Potency is inactive: > 76.9 µM.

With `CCn1c(C)c(C(=O)O)c2cc(OC)ccc21`, the Potency is inactive: > 76.9 µM.

For the compound `O=C1NC(=O)C2(Cc3c(nc4ccccn4c3=O)N3CCCCCC32)C(=O)N1Cc1ccccc1` (stereo not drawn), the Potency is inactive: > 76.9 µM.

Turning to `CCCCC12CNCC(C)(CNC1)C2=O`, the Potency was inactive: > 76.9 µM.

As to `CC1OC(NCCc2ccccc2)C(O)C(O)C1O` (stereo not drawn), the Potency was inactive: > 76.9 µM.

Take `CCN1c2nc3c(C)cccn3c(=O)c2CC2(C(=O)N(C)C(=O)N(C)C2=O)C1C` (stereo not drawn): the Potency was inactive: > 76.9 µM.

As to `O=P(/C(=N/O)N1CCOCC1)(N1CCOCC1)N1CCOCC1`, the Potency is inactive: > 76.9 µM.

`CN(C)C(=O)CSc1nnc([C@@H](N)Cc2ccccc2)o1`: the Potency is inactive: > 76.9 µM.

Consider `OC(COCc1ccc(Cl)cc1)CN1CC=C(c2ccccc2)CC1` (stereo not drawn), for which the Potency is inactive: > 76.9 µM.

Consider `CCN1CCN(Cc2ccc(OC(F)(F)F)cc2)CC1`, for which the Potency is inactive: > 76.9 µM.

Consider `CCCCCCn1c(O)c(C=NC2CCCCC2N)c(=O)[nH]c1=O` (stereo not drawn), for which the Potency is inactive: > 76.9 µM.
